The values below come from a collection of fitness landscapes (doi:10.1126/science.1257360).

The labels stand for the following.
B1: PhoQ; a variant is named by its letters at X, in order, P23837 (parent)
chain: MKKLLRLFFPLSLRVRFLLATAAVVLVLSLAYGMVALIGYSVSFDKTTFRLLRGESNLFYTLAKWENNKLHVELPENIDKQSPTMTLIYDENGQLLWAQRDVPWLMKMIQPDWLKSNGFHEIEADVNDTSLLLSGDHSIQQQLQEVREDDDDAEMTHSVAVNVYPATSRMPKLTIVVVDTIPVELKSSYMVWSWFIYVLSANLLLVIPLLWVAAWWSLRPIEALAKEVRELEEHNRELLNPATTRELTSLVRNLNRLLKSERERYDKYRTTLTDLTHSLKTPLXXLQXXLRSLRSEKMSVSDAEPVMLEQISRISQQIGYYLHRASMRGGTLLSRELHPVAPLLDNLTSALNKVYQRKGVNISLDISPEISFVGEQNDFVEVMGNVLDNACKYCLEFVEISARQTDEHLYIVVEDDGPGIPLSKREVIFDRGQRVDTLRPGQGVGLAVAREITEQYEGKIVAGESMLGGARMEVIFGRQHSAPKDE

The other results are listed elsewhere or left out.

This assay covers variants of B1. Nature of the assay: enrichment ratio after two sorts for PhoP signalling (ratio (wild type AVST 3.29)); higher = more functional. The conditions noted are these: with PhoP (E. coli).
With YSTG, the enrichment ratio was not above 0.25.
The figure for LKRE is not above 0.25; for ACSP it is 0.356; for SDVC it is 11.5.
The figure for IKTI is not above 0.25; for KPMH it is not above 0.25; for LDMT it is not above 0.25.
Next, ILMK: not above 0.25.
As to GFSG, the enrichment ratio is not above 0.25.
Next, YAHF: not above 0.25; FLPG: not above 0.25.
With RKSK, the enrichment ratio is not above 0.25.
Next, YGHF: not above 0.25; YTEY: not above 0.25.
The figure for KIHC is not above 0.25; for WVSC it is not above 0.25; for LEMI it is not above 0.25.
The figure for DVDR is not above 0.25; for PECY it is not above 0.25.
With NFGE, the enrichment ratio is not above 0.25.
Next, SKCL: 11.8; LMHE: not above 0.25.
Next, SYLQ: 2.49.
The figure for KPFM is not above 0.25; for DAFC it is not above 0.25.
For the variant PIMC, the enrichment ratio was not above 0.25.
Next, ENYA: not above 0.25; PPHC: not above 0.25; PCCC: not above 0.25.
The figure for FFVP is not above 0.25.
Consider EMGT, for which the enrichment ratio is not above 0.25.
The figure for NNLS is not above 0.25; for LITP it is not above 0.25.
The figure for QPNM is not above 0.25; for AIMF it is 0.847; for GEHH it is not above 0.25.
Next, DLIC: not above 0.25.
With QLDT, the enrichment ratio was not above 0.25.
Next, RNAN: not above 0.25; TEIV: not above 0.25; RQET: not above 0.25.
Next, AWTW: not above 0.25; TTPQ: not above 0.25; WHQF: not above 0.25.
Next, LMHW: not above 0.25; SDIS: 0.255.
For YHVD, the enrichment ratio is not above 0.25.
Next, CPLS: not above 0.25; PVGY: not above 0.25.
The figure for PVRN is not above 0.25; for VWMI it is not above 0.25; for GPKI it is not above 0.25.
The figure for WLHC is not above 0.25.
HPIR: the enrichment ratio is not above 0.25.
As to FYSH, the enrichment ratio was not above 0.25.
On to NQAV, for which the enrichment ratio is not above 0.25.
Next, VAFL: 3.05; IQAC: not above 0.25.
The figure for DIYT is not above 0.25; for IDGV it is not above 0.25; for MHRL it is not above 0.25.
Next, LQYH: not above 0.25.
WIWP: the enrichment ratio was not above 0.25.
With RVFP, the enrichment ratio is not above 0.25.
Next, FIDR: not above 0.25.
Take QHTE: the enrichment ratio is not above 0.25.
The figure for KENM is not above 0.25; for NIIR it is not above 0.25.
Next, WLCS: not above 0.25; TEYM: not above 0.25; GYLY: not above 0.25.
The figure for MIYP is not above 0.25.
Regarding KGDF, the enrichment ratio was not above 0.25.
The figure for KLHN is not above 0.25; for MCLS it is 3.86.
Next, YLRC: 0.276; QPTL: not above 0.25; KLRA: not above 0.25.
The figure for PAFK is not above 0.25; for MNLS it is 3.95.
For PPQQ, the enrichment ratio is not above 0.25.
Next, IDYR: not above 0.25.
Turning to GSVV, the enrichment ratio was 2.64.
For the variant TLID, the enrichment ratio is not above 0.25.
